Experimental data published in the supplement of paper PMC3334620.
Whole data set: some 33,000 sequences, median “E-score (-0.5 to 0.5)” near -0.016, cut for the highest 2% near 0.32. The list shows a part of the results.

biological target: T1, Stp1 (UniProt B3LFK1); assay: PBM E-score (8-mer binding enrichment) (E-score (-0.5 to 0.5)); higher = stronger / more preferred TF binding; most listed sequences are background and not binding sites; details: protein concentration: 200 nM; construct: GST-full length
T1 sequence: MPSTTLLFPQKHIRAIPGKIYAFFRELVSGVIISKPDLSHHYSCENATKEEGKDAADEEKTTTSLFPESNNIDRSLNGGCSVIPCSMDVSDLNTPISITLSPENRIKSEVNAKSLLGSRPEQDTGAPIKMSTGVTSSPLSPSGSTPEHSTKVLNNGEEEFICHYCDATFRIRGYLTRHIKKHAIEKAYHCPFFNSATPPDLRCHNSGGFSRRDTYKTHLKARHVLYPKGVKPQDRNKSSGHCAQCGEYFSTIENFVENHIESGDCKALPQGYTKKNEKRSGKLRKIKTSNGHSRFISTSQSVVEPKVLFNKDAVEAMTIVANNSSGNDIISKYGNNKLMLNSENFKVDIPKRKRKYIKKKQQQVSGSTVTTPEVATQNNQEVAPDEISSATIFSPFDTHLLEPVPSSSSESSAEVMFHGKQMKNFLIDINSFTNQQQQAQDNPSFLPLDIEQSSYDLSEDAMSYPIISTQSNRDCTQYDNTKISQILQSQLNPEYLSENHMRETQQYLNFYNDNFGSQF
How it was run: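 Each ungapped eight-base word and its reverse complement, pooled, received an E-score from the Universal PBM Analysis Suite. Underlying scans, normalised with masliner, recorded fluorescent anti-GST bound to GST-tagged yeast transcription factors. These were applied at about 100-200 nM to universal all-10-mer Agilent arrays double-stranded by primer extension.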

Sequence	PBM E-score
CGGCTAGA	0.193
ACGTGGAC	0.159
CAAAGCCC	-0.0858
AGGAGTTG	0.0218
GCCCCAGA	-0.136
CCACACCC	-0.0998
CATGATCG	-0.0196
CAGGCTAC	-0.18
CGCATATC	0.11
CTGGTCAC	-0.159
TACTCCCA	0.0254
AACAAGGT	0.00428
ATAAATTC	0.189
CCGCACTC	0.0993
AAGTCTAC	-0.287
CAACAAGA	0.014
AACTCCAA	-0.0303
CCACCTAC	-0.183
CATAAAAG	0.0311
AGGACCAA	-0.0753
AGATAGGA	-0.0603
ACATCGAA	0.144
AGGAGTAG	0.0438
CGCCCCAA	0.202
GCTGTCCC	-0.0405

Sequence	PBM E-score
CGTTTCTC	-0.17
ACTGGCTA	-0.0563
CTCAGTAC	-0.188
AGCGTGCC	0.126
GAGTTCCA	-0.157
CACGTAAA	0.0116
CCTCTGTC	-0.18
ACCATAAC	-0.0279
AAAAGGAT	0.0988
GACGTCAC	-0.189
ACTTACAT	0.0173
CCCGCTAC	-0.0384
AGAAACAC	0.0654
ACTCTTTG	-0.0491
CCAACCAC	-0.0157
AACTCACA	0.0429
TCGGGCCA	-0.23
CTAAGAAA	0.0483
ACCCTTAA	-0.207
ACTACCCT	-0.289
GACTCCAC	-0.371
AGCTGCAC	-0.111
ACCAACAC	0.0757
CCGTCCAA	0.0723
ACGACCGT	-0.11

Sequence	PBM E-score
GCAGGCAC	0.0604
AGGATCGC	-0.145
CGAGTACA	-0.138
AGCAGCAA	-0.0165
ACAGGGGT	-0.338
CGGAGTGC	0.117
AGCGTTTG	-0.194
GGGCGGGA	-0.11
ACATTTCT	0.0896
AGGGCAAC	0.156
CACTCAAG	-0.183
ATCGCGGC	0.238
CCATGCAG	-0.0466
AACCGGCA	-0.0148
CGAACGCA	0.249
GCGCCTCA	0.401
CACATAGG	-0.116
CAGGTTGA	-0.216
CCTCCATC	-0.349
AAAATAAG	0.0684
ATTGCTTC	-0.0312
AAAACAAC	-0.0645
CGCAACAA	0.0995
GCTTCTAA	-0.126
ATTTCCAG	-0.0961

Sequence	PBM E-score
CCCATATC	-0.109
CCCTTAAA	-0.0855
TCGTTACA	-0.0277
AAGGCCGG	0.128
GGTAGGGA	-0.00966
GAGGCGAC	0.155
AGCAACTA	0.0808
CCTTAGTC	-0.245
CAAAGTTA	0.235
CAAGCGAA	-0.0793
ATTTGGGG	-0.114
TCGGCCCA	-0.116
GGCTCGGA	-0.282
CTGGTTAC	-0.183
ATCTTAAT	0.0159
CTGTAGCA	-0.0299
AATCCATC	-0.0702
GCTTAGAA	-0.0455
ATACTCGA	-0.11
CGCGCGCG	0.405
CTGTAGAC	-0.0162
TTACACAA	0.295
TCGCTGCA	0.0175
CTGGATTA	0.00615
ACATGGGC	-0.00178

Sequence	PBM E-score
CGCCGTCA	0.216
ACCCTTCT	-0.205
TCCGCTAA	-0.0219
CGCTGTAC	-0.0719
GCTGCTCC	-0.169
AACGTAGC	-0.0957
ATGACTTA	0.00641
CACGGAAG	0.0821
GAGCGCGA	0.0541
ATCTGACC	-0.0188
GAGTGATC	-0.144
ATTTACGA	0.18
AGGTCCTC	-0.124
AGCGTGAA	-0.129
TAGGCAGA	0.0908
GCTGGGCA	-0.0152
CCACCTAG	-0.373
CATCATCG	-0.0866
TCCGGAGA	-0.275
ACCAACTA	0.13
AAGACCGC	-0.0872
ACGTCTTC	-0.153
ACCTATGC	0.0967
CGCGTTAG	0.223
ATACGTGA	0.0388

Sequence	PBM E-score
ATGTCTAG	0.154
CCTCGGTA	-0.25
CCCAGCCA	-0.171
AGGTGCTA	-0.115
GATGGTGC	-0.181
ATGAACTA	0.0852
ATATGAAT	0.117
AGGCCGGC	-0.0598
CCCGTTAG	-0.166
CGGCATAG	0.312
CCCATCAG	-0.248
TATTTTAA	0.116
ACGCAAAC	0.174
ACCCCAGC	-0.172
ATTACGAA	0.077
CCCGACAG	-0.174
CAAAATCA	0.0708
CGAGGTCA	-0.205
GCTCCCGA	-0.19
CGTATGGC	0.267
GTCTTGGA	-0.143
AATAGAGC	0.107
GGCCCGGA	-0.222
CCGCGCCC	0.279
AAGAGTAC	-0.0411

Sequence	PBM E-score
TCTCAAGA	0.0764
AACGCAAT	0.251
ACCACTTC	-0.242
AAGCATCA	-0.109
AGCTGCGC	-0.00969
TAAATCTA	0.0626
AGGGAAGG	-0.31
CCATTCTC	-0.0651
ACTTGCGC	0.0537
CGGTGTAG	-0.122
ATAGTACA	0.0423
AGACGTAC	-0.195
AACCTCTC	-0.213
AACGGCCG	0.333
CCCAGGCA	-0.162
CGATACTC	0.00075
CCGTGAGG	0.0309
CTGTTGGC	-0.186
ACGAGTGA	-0.0566
AGTTCTAT	-0.112
ATGCGGAG	-0.0518
ACAACATG	0.136
